In the assay the target is T1, CRNN (human, UniProt Q9UBG3 1-495).
T1 construct: endogenous prey from cell lysate
The assay can be described thus: AP-MS, 3xFLAG bait, breast cell lines.

T1 sequence (Q9UBG3 whole entry): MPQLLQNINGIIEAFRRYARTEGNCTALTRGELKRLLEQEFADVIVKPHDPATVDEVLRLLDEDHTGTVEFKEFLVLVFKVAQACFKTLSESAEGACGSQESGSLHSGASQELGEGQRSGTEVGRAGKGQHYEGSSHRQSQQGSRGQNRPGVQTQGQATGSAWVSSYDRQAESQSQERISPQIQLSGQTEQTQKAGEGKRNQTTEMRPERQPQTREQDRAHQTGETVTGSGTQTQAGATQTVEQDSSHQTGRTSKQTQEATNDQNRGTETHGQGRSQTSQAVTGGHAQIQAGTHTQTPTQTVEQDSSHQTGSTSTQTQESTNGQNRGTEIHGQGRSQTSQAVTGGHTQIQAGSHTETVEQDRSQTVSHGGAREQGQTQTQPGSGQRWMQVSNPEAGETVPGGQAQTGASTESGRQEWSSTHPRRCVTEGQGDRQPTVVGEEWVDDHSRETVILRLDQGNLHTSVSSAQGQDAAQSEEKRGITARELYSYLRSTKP

B1: AKT1 E17K mutant (enzyme)
chain: not shown
On to B1, for which the binding result is “no binding”.

The values above are taken from US20240321457A1 (University of California, published 2024).
